Assay results published in US20170307631A1, “METHODS, SYSTEMS AND PRODUCTS FOR PREDICTING RESPONSE OF TUMOR CELLS TO A THERAPEUTIC AGENT AND TREATING A PATIENT ACCORDING TO THE PREDICTED RESPONSE” (Merrimack Pharmaceuticals, Inc., priority 2008, published 2017).

What was measured:
ErbB2 = ErbB2 (Homo sapiens, UniProt P04626); experiment: On-rate and off-rate of B1D2 arm of H3×B1D2 by BIACore and KinExA; type: binding
Description: (§1) Next, a computational representation of the mechanism by which H3×B1D2 inhibits HRG-dependent signaling of the ErbB pathway was developed. The computational representation of the inhibitor was constructed using mass-action reaction equations that describe the binding of inhibitor to ErbB2 and ErbB3 and subsequent inhibition of HRG-induced signaling. Parameters for the binding events were obtained by a combination of direct measurement (using techniques widely known in the art) and computational training of the model to match data for the inhibition of HRG-induced pErbB3 in cells by H3×B1D2. In particular, the on-rate and off-rate for binding of the H3 single chain arm of the bispecific antibody to ErbB3 and the on-rate and off-rate for the binding of the B1D2 single chain arm of the bispecific antibody to ErbB2 were experimentally determined by standard BIACore and KinExA technology. Reactions and parameters for the computational model of H3×B1D2 appear in Tables 16a and 16b.

ErbB3 = ErbB3 (Homo sapiens, UniProt P21860); experiment: On-rate and off-rate of H3 arm of H3×B1D2 by BIACore and KinExA; type: binding
Description: as §1

B1: H3 x B1D2 (protein)
chain: QVQLQESGGGLVKPGGSLRLSCAASGFTFSSYWMSWVRQAPGKGLEWVANINRDGSASYYVDSVKGRFTISRDDAKNSLYLQMNSLRAEDTAVYYCARDRGVGYFDLWGRGTLVTVSSASTGGGGSGGGGSGGGGSQSALTQPASVSGSPGQSITISCTGTSSDVGGYNFVSWYQQHPGKAPKLMIYDVSDRPSGVSDRFSGSKSGNTASLIISGLQADDEADYYCSSYGSSSTHVIFGGGTKVTVLGAAS[about 600 residues skipped]AAALQVQLVQSGAEVKKPGESLKISCKGSGYSFTSYWIAWVRQMPGKGLEYMGLIYPGDSDTKYSPSFQGQVTISVDKSVSTAYLQWSSLKPSDSAVYFCARHDVGYCTDRTCAKWPEWLGVWGQGTLVTVSSGGGGSSGGGSGGGGSQSVLTQPPSVSAAPGQKVTISCSGSSSNIGNNYVSWYQQLPGTAPKLLIYDHTNRPAGVPDRFSGSKSGTSASLAISGFRSEDEADYYCASWDYTLSGWVFGGGTKLTVLG
Question: Which “h3xb1d2_kr1: reverse parameter, E2 + (H3 x B1D2) <-> E2:(H3 x B1D2)” value (ErbB2; off-rate from ErbB2) does the source give for B1 here?
Answer: The value was 0.00015 s⁻¹.

Question: And the “h3xb1d2_kf1: forward parameter, E2 + (H3 x B1D2) <-> E2:(H3 x B1D2)” value (ErbB2; on-rate, binding to ErbB2)?
Answer: Its value is 3.13E+04 (mol/L)−1sec−1.

Question: And the “h3xb1d2_kr2: reverse parameter, (H3 x B1D2) + E3 <-> (H3 x B1D2):E3” value (ErbB3; off-rate from ErbB3)?
Answer: The value was 0.022 s⁻¹.

Question: And the “h3xb1d2_kf2: forward parameter, (H3 x B1D2) + E3 <-> (H3 x B1D2):E3” value (ErbB3; on-rate, binding to ErbB3)?
Answer: Its value is 3.50E+05 (mol/L)−1sec−1.
